Source: patent US12459876B2, “One-step kit-based synthesis of 2-deoxy-2-[18F]fluoro-D-sorbitol” (The Johns Hopkins University, priority 2020, dated 2025)

System: K. pneumoniae
Details: hamster, in vivo; infected hamsters; 120 minutes post-tracer injection

SMILES: OC[C@@H](O)[C@@H](O)[C@H](O)[C@@H]([18F])CO [^18F-FDS, 2-deoxy-2-[^18F]fluoro-D-sorbitol]
- PET signal in other organs (biodistribution): signal also can be seen in the kidneys, gallbladder, and intestines
